# The other results are listed elsewhere or left out.
# Biological target: T1, OsWOX13 (Oryza sativa, UniProt Q5QMM3 1-267)
# T1 sequence: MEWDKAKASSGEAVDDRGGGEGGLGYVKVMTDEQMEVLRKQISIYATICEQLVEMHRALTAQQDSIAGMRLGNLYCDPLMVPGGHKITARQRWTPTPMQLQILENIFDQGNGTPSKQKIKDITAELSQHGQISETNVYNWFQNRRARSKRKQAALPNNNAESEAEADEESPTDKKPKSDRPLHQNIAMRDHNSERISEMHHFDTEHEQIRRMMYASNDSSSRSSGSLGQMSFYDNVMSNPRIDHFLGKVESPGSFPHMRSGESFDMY
# Test: protein-binding microarray (RPBM); PBS, 2% BSA, 51.3 ng/ul salmon testes DNA, 50 uM zinc acetate, 200 nM TF, 25 C, 1 h; high values mean tight binding
# Conditions: protein: recombinant; tags: N-terminal polyhistidine and DsRed monomer fusion (pET32a); label: CyDye5-dUTP incorporated in the synthesized complementary strand; 3' TTTTT single-stranded linker to array surface; dsDNA, one strand shown
# In short: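 Per-feature fluorescence intensity (arbitrary units), read on an Axon 4000B scanner, is the binding signal. Transcription factors carrying an N-terminal polyhistidine tag and DsRed fusion were expressed in E. coli BL21-CodonPlus and purified on Ni–NTA. A custom Agilent array, made double-stranded by primer extension with Cy5-dUTP and blocked with 2% BSA, was incubated with 200 nM protein in PBS, 2% BSA, salmon testes DNA and 50 µM zinc acetate at 25 °C for 1 h and then washed.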
row,Sequence,binding signal
1,GAAAATTGGACTGAGTGACAACTTGAGGAGCTAAAGTGAACGGAGTCACCTAGTGCAG,13600 fluorescence intensity (a.u.)
2,AAAGATTAATATATGTGATGCATTATGAAGATAGCATAATCGGAGTCACCTAGTGCAG,6480 fluorescence intensity (a.u.)
3,TATTATTGATTTTGAAGTAAAATAAATTTACTTAACCCAACGGAGTCACCTAGTGCAG,11500 fluorescence intensity (a.u.)
4,AATATATAATAGATAGATAGATTTCTAACGACTTCTTTTGCGGAGTCACCTAGTGCAG,22700 fluorescence intensity (a.u.)
5,CCAAAATGGATTTGCTATTACACTTGTCAATTCTCCCTTGCGGAGTCACCTAGTGCAG,8530 fluorescence intensity (a.u.)
6,CTAGATTATTTTAATCTATAAGCTAGATTACTATAATCCACGGAGTCACCTAGTGCAG,15200 fluorescence intensity (a.u.)
7,GACAGTAATCCGTTAAACTCAATTATTGGCACTCTGCTAGCGGAGTCACCTAGTGCAG,6120 fluorescence intensity (a.u.)
8,TATAAAATAATTTTATATAAGACAGACAATTAAAGTTGGACGGAGTCACCTAGTGCAG,3660 fluorescence intensity (a.u.)
9,CGTCTAATTATAAATCATAACACATTATTCGTAAAATAATCGGAGTCACCTAGTGCAG,15000 fluorescence intensity (a.u.)
10,TTAATTAAACCAATTTAATATTTTATATGTTGTTAAATTTCGGAGTCACCTAGTGCAG,8440 fluorescence intensity (a.u.)
11,CTGTTAATGAGATGGCAGATCATGTAGATGCCCCTCCTTTCGGAGTCACCTAGTGCAG,5520 fluorescence intensity (a.u.)
12,TTGATTGGGTCTGTGGTGGAACAGGACGATCATACATCACCGGAGTCACCTAGTGCAG,21000 fluorescence intensity (a.u.)
13,GCAGGATTGTAATTGCACGTGAATAGCGGCATAGCCCCACCGGAGTCACCTAGTGCAG,12100 fluorescence intensity (a.u.)
14,CATTCCAATCACCTCGGCGAGATCAGTCCAAACTCCAAAGCGGAGTCACCTAGTGCAG,14200 fluorescence intensity (a.u.)
15,TTCCTGAAATTTGACACAAAACTGAATTTCAGGCCCATGACGGAGTCACCTAGTGCAG,6020 fluorescence intensity (a.u.)
16,CACTTAACTGAACACTTACTTCTCGGTGACAAGTGAAATGCGGAGTCACCTAGTGCAG,10800 fluorescence intensity (a.u.)
17,TTGATTCTTTCGGTGATTTAAAAGGATAGTTTCGCTAACGCGGAGTCACCTAGTGCAG,4540 fluorescence intensity (a.u.)
18,ACTGCAATGTAAATTGAATGTAACTTTTATATAATTTTAACGGAGTCACCTAGTGCAG,4080 fluorescence intensity (a.u.)
19,GACAAATGATCTTAATCAAATAATTACTAACTATATGTCTCGGAGTCACCTAGTGCAG,13500 fluorescence intensity (a.u.)
20,GTAATTTTAGAATCTAGATGATTAAAGATCTTAGATAAATCGGAGTCACCTAGTGCAG,3620 fluorescence intensity (a.u.)
21,ATACAAATAACCTTAATTAATTGTGTTAATTCTGTACACACGGAGTCACCTAGTGCAG,20400 fluorescence intensity (a.u.)

row,Sequence,binding signal
1,GGGTGATTGAATCCTTGTCATCTAGTGTAAGGCATCTTTCCGGAGTCACCTAGTGCAG,36400 fluorescence intensity (a.u.)
2,ACATGGGAATTTTGGTGGGATGGGGATGGGGATGGGGAATCGGAGTCACCTAGTGCAG,7450 fluorescence intensity (a.u.)
3,ATTGACATAGGAGTGTGATTTACTTTCCTAGAGATATAATCGGAGTCACCTAGTGCAG,8960 fluorescence intensity (a.u.)
4,TTTAATTTTGAGAATTTCTATGGCATCAAAAGGATTGCATCGGAGTCACCTAGTGCAG,5880 fluorescence intensity (a.u.)
5,CGTAGACTAATAACAAAACAAATTACAGATTCCGTCTGTACGGAGTCACCTAGTGCAG,6750 fluorescence intensity (a.u.)
6,CAAGTTTGATTGAGTCAATGGTTTTATGGGCTCGTGGCCTCGGAGTCACCTAGTGCAG,45200 fluorescence intensity (a.u.)
7,CGAAGAGGCCAGCTGATTGACTCTACACTCGGGTTGCGGTCGGAGTCACCTAGTGCAG,29400 fluorescence intensity (a.u.)
8,AGTTTTCTGTTCAATGATTTGGTTGAATCAAATTGTTCCTCGGAGTCACCTAGTGCAG,4400 fluorescence intensity (a.u.)
9,GAAAATTGAGAAACCATGGAGACCGCGCATCTAGCCTACGCGGAGTCACCTAGTGCAG,16900 fluorescence intensity (a.u.)
10,GTCAAATCATGACGTAATTAGGCTTAAAAGATTTGTCTCGCGGAGTCACCTAGTGCAG,23300 fluorescence intensity (a.u.)
11,GCTGAACCTAACAAAATTCAATTATATGCAGCATATAATGCGGAGTCACCTAGTGCAG,3160 fluorescence intensity (a.u.)
12,TAGGATTTAAATCATATGAAATTCCTAAATAAATCCTTTGCGGAGTCACCTAGTGCAG,7560 fluorescence intensity (a.u.)
13,TGGGATAAATTTACAATTACTACTATCTCCATTTTAAATACGGAGTCACCTAGTGCAG,12700 fluorescence intensity (a.u.)
14,ATAATGATGAGTAGTAATATAATAATAGGTTGTAGATCAACGGAGTCACCTAGTGCAG,7770 fluorescence intensity (a.u.)
15,TTGAAAATTTAAAGAAATTGGAACGATGTGACGGAAAAGTCGGAGTCACCTAGTGCAG,9930 fluorescence intensity (a.u.)
16,TTTAATTAACAAAATTATTGGTGACAGAGACCGAATATATCGGAGTCACCTAGTGCAG,38300 fluorescence intensity (a.u.)
17,GTGGTGATTTGGGACCTAGATGACACACTATGACAAGTTCCGGAGTCACCTAGTGCAG,17400 fluorescence intensity (a.u.)
18,AATTCAAATTTGAATCAGATATAATTCAAATTCAAATTTGCGGAGTCACCTAGTGCAG,7140 fluorescence intensity (a.u.)
19,TGATTAATCCGTAATTGCAGGAACCTAAATTACTAATGTCCGGAGTCACCTAGTGCAG,12400 fluorescence intensity (a.u.)
20,GTTGATTTTGTAGGGTTAAATTGAAGTTTCCACTTGATATCGGAGTCACCTAGTGCAG,25500 fluorescence intensity (a.u.)
21,AGCCAATCAGTAAACAAGAAAACCACCCTGACCCCTGGCACGGAGTCACCTAGTGCAG,23500 fluorescence intensity (a.u.)
